According to the antibiotic and cytotoxicity screens of Wong et al. (2023):
This is one part of the list.

How the values were obtained:
HSkMC = human skeletal muscle cells; test: cytotoxicity call (relative viability < 0.9); details: 10 µM
HepG2 = test: cytotoxicity call (relative viability < 0.9); details: 10 µM
S. aureus RN4220 = test: growth inhibition call (relative growth <= 0.2); details: 50 µM

Row | SMILES | cytotoxicity call (HSkMC) | cytotoxicity call (HepG2) | growth inhibition call (S. aureus RN4220)
1 | C[C@@H](N)C12CC3CC(CC(C3)C1)C2 | inactive | inactive | inactive
2 | O=C(O)C[C@@H](C(=O)O)[C@H](O)c1ccccc1 | inactive | inactive | inactive
3 | C[C@H]1CN([C@@H](C)CO)C(=O)c2cccc(NC(=O)c3nc4ccccc4s3)c2O[C@@H]1CN(C)C(=O)Nc1ccc(C(F)(F)F)cc1 | inactive | inactive | inactive
4 | O=C(C[C@@H]1CC[C@@H]2[C@H](COC[C@H](O)CN2C(=O)Nc2ccc(C(F)(F)F)cc2)O1)NCCc1ccncc1 | inactive | inactive | inactive
5 | C[C@@H]1CCCCO[C@@H](CN(C)CC2CCCCC2)[C@@H](C)CN([C@H](C)CO)C(=O)c2cc(NC(=O)Nc3cccc4ccccc34)ccc2O1 | active | active | inactive
6 | C[C@@H]1CCCCO[C@H](CN(C)Cc2ccc(C(=O)O)cc2)[C@H](C)CN([C@@H](C)CO)C(=O)c2cc(NS(=O)(=O)c3ccc(F)cc3)ccc2O1 | inactive | inactive | inactive
7 | COc1ccc([C@@H](NC(=O)C2CCN(CCOc3ccc(Cl)cc3Cl)CC2)c2ccco2)cc1 | inactive | inactive | inactive
8 | Cc1ccc(S(=O)(=O)N(C)C[C@H]2Oc3ccc(NS(=O)(=O)c4c(C)noc4C)cc3CC(=O)N([C@@H](C)CO)C[C@H]2C)cc1 | inactive | inactive | inactive
9 | C[C@@H]1CN([C@@H](C)CO)C(=O)Cc2cc(NC(=O)Nc3ccccc3)ccc2O[C@H]1CN(C)Cc1ccc(-c2ccccc2)cc1 | inactive | active | inactive
10 | CCCCc1oc2ccccc2c1C(=O)c1cc(I)c(OCCN(CC)CC)c(I)c1 | active | active | inactive
11 | C[C@@H]1CN([C@H](C)CO)C(=O)c2cc(NC(=O)Cc3ccccc3)ccc2O[C@@H](C)CCCCO[C@H]1CN(C)C(=O)CCC(F)(F)F | inactive | inactive | inactive
12 | O=C(C[C@@H]1CC[C@H]2[C@@H](COC[C@@H](O)CN2S(=O)(=O)c2ccc(F)cc2)O1)N[C@@H]1CCN(Cc2ccccc2)C1 | inactive | inactive | inactive
13 | CC(C)c1c(O)ccc2c1CCC1C(C)(C)C(=O)CCC21C (centres undefined) | inactive | inactive | inactive
14 | Cc1cc(=O)[n+]2cccc(O)c2[nH]1 | inactive | inactive | active
15 | CC=C(C(=CC)c1ccc(O)cc1)c1ccc(O)cc1 | inactive | inactive | active
16 | O=C(NCC[C@@H]1CC[C@@H](NS(=O)(=O)c2cccc(F)c2)[C@H](CO)O1)C1CC1 | inactive | inactive | inactive
17 | C[C@H]1CN([C@@H](C)CO)C(=O)CCCn2cc(nn2)CO[C@@H]1CN(C)Cc1cccc2c1OCCCO2 | inactive | inactive | inactive

Row | SMILES | cytotoxicity call (HSkMC) | cytotoxicity call (HepG2) | growth inhibition call (S. aureus RN4220)
18 | Cc1ccc(S(=O)(=O)Nc2ccc3c(c2)CC(=O)N([C@@H](C)CO)C[C@@H](C)[C@H](CN(C)C(=O)NC(C)C)O3)cc1 | inactive | inactive | inactive
19 | Cc1ccc(S(=O)(=O)N(C)C[C@@H]2OCCCC[C@H](C)Oc3ccc(NC(=O)C4CCCCC4)cc3C(=O)N([C@H](C)CO)C[C@H]2C)cc1 | inactive | inactive | inactive
20 | C[C@@H]1CN([C@H](C)CO)S(=O)(=O)c2ccc(-c3ccncc3)cc2O[C@H]1CN(C)S(=O)(=O)c1ccccc1F | inactive | inactive | inactive
21 | CC(=O)N1[C@H](CNC(=O)CN2CCOCC2)[C@H](c2ccccc2)[C@@H]1CO | inactive | inactive | inactive
22 | C[C@@H]1CCCCO[C@@H](CN(C)S(=O)(=O)c2ccc(F)cc2)[C@H](C)CN([C@H](C)CO)C(=O)c2cc(NC(=O)NC3CCCCC3)ccc2O1 | inactive | active | inactive
23 | Cc1ccc(S(=O)(=O)Nc2ccc3c(c2)CC(=O)N([C@@H](C)CO)C[C@H](C)[C@H](CN(C)S(=O)(=O)c2ccc(F)cc2)O3)cc1 | inactive | inactive | inactive
24 | COCC#Cc1ccc2c(c1)O[C@H](CN(C)S(=O)(=O)c1cccc(F)c1)[C@@H](C)CN([C@H](C)CO)S2(=O)=O | inactive | inactive | inactive
25 | C[C@@H]1CN([C@H](C)CO)C(=O)Cc2cc(NS(=O)(=O)c3cn(C)cn3)ccc2O[C@H]1CN(C)Cc1ccc2c(c1)OCO2 | inactive | inactive | inactive
26 | Nc1ccn(C[C@@H](CO)OCP(=O)(O)O)c(=O)n1 | inactive | inactive | inactive
27 | C[C@@H]1CN([C@@H](C)CO)C(=O)c2cccc(NC(=O)C3CCCCC3)c2O[C@@H]1CN(C)Cc1ccc(-c2ccccc2)cc1 | inactive | inactive | inactive
28 | C[C@@H]1CCCCO[C@@H](CN(C)C(=O)Cc2ccccc2)[C@H](C)CN([C@@H](C)CO)C(=O)c2cc(NC(=O)CCCCCC(=O)Nc3ccccc3N)ccc2O1 | inactive | inactive | inactive
29 | C[C@H](CO)N1C[C@H](C)[C@@H](CN(C)Cc2ccncc2)Oc2ccc(NS(=O)(=O)c3ccccc3)cc2CC1=O | inactive | inactive | inactive
30 | C[C@H](CO)N1C[C@H](C)[C@@H](CN(C)C(=O)Nc2ccc(F)cc2)Oc2c(NC(=O)c3cnccn3)cccc2C1=O | inactive | inactive | inactive
31 | C[C@@H]1CN([C@H](C)CO)C(=O)c2cccc(NC(=O)C3CCOCC3)c2O[C@H]1CN(C)S(=O)(=O)c1ccc(F)cc1 | inactive | inactive | inactive
32 | COc1ccc(NC(=O)N(C)C[C@H]2Oc3c(NC(=O)C4CCOCC4)cccc3C(=O)N([C@H](C)CO)C[C@@H]2C)cc1 | inactive | inactive | inactive
33 | CC(C)C#Cc1ccc2c(c1)O[C@H](CN(C)C(=O)c1cnccn1)[C@H](C)CN([C@@H](C)CO)S2(=O)=O | inactive | inactive | inactive
